Values joined by “and” are separate entries in the source; they are usually repeats but may differ in a detail not shown here. Equal values may be shown once. Among all 310,000 compounds or so, about 11,000 (3.5%) were called active. The inconclusive results got no clear call from the source; some entries with a clear call stand among them for comparison. Calls follow the shape of the dose curve; as a rule, active = well fitted inhibition curve with a large enough effect; inconclusive = small, poorly fitted or top-dose-only effect, or effect the other way; inactive = flat fitted curve, though single readings scatter. No potency is given beside an inconclusive call; the fits are too rough.
Experiment: VP16 counterscreen qHTS for inhibitors of ROR gamma transcriptional activity;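 also: Gal4-VP16 expression switched on by copper sulfate through the metallothionein promoter; nearly all actives have a fitted effect of over 50% in size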
Details: Drosophila S2 Gal4-VP16 UAS-luciferase, luminescence, 20 h; activity, negative = inhibition: at 53.6 µM (top of the series)
% is scaled to controls: 0 for no effect and ±100 for the full control effect; potency is read from the fitted curve at half-maximal effect; tags tell the direction and shape of the fitted curve.

**Q.** With `COc1cccc(NS(=O)(=O)c2ccc(-c3coc(C)n3)cc2)c1` as the compound, how does the Potency read?
**A.** The Potency was inconclusive [inhibitor, single point].

**Q.** Which Potency does the source give for `CC1=CC(=C2C=CC(=O)C=C2)C=C(C)N1C` here?
**A.** Its Potency is inconclusive [inhibitor, partial curve].

**Q.** Which “activity, negative = inhibition” value does the source give for `CCOc1ccccc1C(=O)N1CCN(c2cccc(Cl)c2)CC1` here?
**A.** Its value is inactive: -2.8%.

**Q.** For `Clc1nccnc1N/N=C/c1ccc(Br)cc1`, which Potency is on record?
**A.** Its Potency is inconclusive [inhibitor, single point].

**Q.** Which Potency does the source give for `CC/C(=N\NC(=S)Nc1ccc(OC)cc1)c1ccc(OC(F)F)cc1` here?
**A.** Its Potency is inconclusive [inhibitor, single point].

**Q.** With `COc1ccc(Cl)cc1C(=O)NNC(=S)NC(=O)/C=C/c1ccco1` as the compound, how does the Potency read?
**A.** The Potency was inconclusive [inhibitor, single point].

**Q.** Which “activity, negative = inhibition” value does the source give for `COc1ccc(S(=O)(=O)N2CCCC(C(=O)NCc3ccco3)C2)cc1OC` (stereo unspecified) here?
**A.** The value was inactive: -0.655%.

**Q.** Which Potency does the source give for `CCCCCOc1ccc(NC(=O)c2cc(SC)ccc2Cl)cc1` here?
**A.** The Potency was inconclusive [activator, single point].

**Q.** Which “activity, negative = inhibition” value does the source give for `COc1ccc(NC(=O)COC(=O)C23CCC(=O)N2c2ccccc2S3)cc1` (stereo unspecified) here?
**A.** The value was inactive: 0.533%.

**Q.** With `Cc1c(CNCCc2ccccc2Cl)c(C(=O)O)c(C)n1-c1ccccc1` as the compound, how does the “activity, negative = inhibition” value read?
**A.** Its value is inactive: 3.75%.

**Q.** With `COc1cc2c(cc1OC)CN(C(=S)Nc1ccc(C)cc1C)CC2` as the compound, how does the Potency read?
**A.** Its Potency is active: 20 µM.

**Q.** With `CCCCn1ccnc1C(=O)c1cccc(S(=O)(=O)N2CC(C)CC(C)C2)c1` (stereo unspecified) as the compound, how does the Potency read?
**A.** The Potency was inconclusive [inhibitor, single point].

**Q.** For `Cc1ccnc(N2C(=O)c3ccccc3C2O)c1` (stereo unspecified), which Potency is on record?
**A.** Its Potency is inconclusive [inhibitor, single point].

**Q.** For `Cc1ccccc1CSCC(=O)NC(=O)NCc1ccco1`, which Potency is on record?
**A.** The Potency was inconclusive [inhibitor, single point].

**Q.** For `CCn1cc(/C=N/NC(=O)c2cc3c(ccc4ccccc43)o2)c2ccccc21`, which Potency is on record?
**A.** Its Potency is inconclusive [inhibitor, single point].

**Q.** Which Potency does the source give for `CC1=CC(C)(C)Nc2ccc(OC(=O)CN3C(=O)CCC3=O)cc21` here?
**A.** Its Potency is active: 7.08 µM.

**Q.** Which “activity, negative = inhibition” value does the source give for `COc1ccc(CC(=O)Nc2cc(S(=O)(=O)N3CCOCC3)ccc2N2CCOCC2)cc1` here?
**A.** Its value is inactive: -1.43%.

**Q.** Which Potency does the source give for `Oc1cccc(/C=C/c2ccc3cccc(O)c3n2)c1` here?
**A.** The Potency was active: 5.01 µM.

**Q.** Which Potency does the source give for `O=C(NC(=S)Nc1cccc(NC(=S)NC(=O)c2ccco2)n1)c1ccco1` here?
**A.** Its Potency is active: 0.794 µM.

**Q.** Which Potency does the source give for `Cc1cc(C)cc(NC(=S)NCCSc2ccc(Cl)cc2)c1` here?
**A.** Its Potency is active: 5.01 µM.

**Q.** For `CC(=O)N(C)c1ccc(N=Nc2c(C)[nH]n(-c3ccccc3)c2=O)cc1`, which Potency is on record?
**A.** The Potency was inconclusive [inhibitor, single point].

**Q.** For `Cc1cccc(NC(=S)NC(=O)c2ccc(-c3ccccc3)cc2)n1`, which Potency is on record?
**A.** The Potency was inconclusive [inhibitor, single point].

**Q.** Which Potency does the source give for `O=C(CCCn1c(=S)[nH]c2cc3c(cc2c1=O)OCO3)N1CCN(c2ccccn2)CC1` here?
**A.** Its Potency is inconclusive [inhibitor, single point].

**Q.** For `CN1CCN(C(=O)C2CCCN(c3ncnc4c3nc3n4CCCCC3)C2)CC1` (stereo unspecified), which Potency is on record?
**A.** The Potency was inconclusive [inhibitor, single point].

**Q.** Which Potency does the source give for `C=CCn1c(NC(C)c2cc(Cl)ccc2O)nc2ccccc21` (stereo unspecified) here?
**A.** The Potency was inconclusive [inhibitor, single point].

**Q.** Which Potency does the source give for `Cc1ccc(NC(=O)CCC(=O)OCC(=O)c2ccc(-c3ccccc3)cc2)cc1` here?
**A.** The Potency was inconclusive [inhibitor, single point].

**Q.** Which Potency does the source give for `CCc1ccc(Cc2cnc(NC(=O)C3=NCCN3)s2)cc1` here?
**A.** Its Potency is inconclusive [inhibitor, partial curve].

**Q.** With `CCCc1cc2c(cc1NC(=O)c1ccc(C(C)(C)C)cc1)OCO2` as the compound, how does the Potency read?
**A.** Its Potency is inconclusive [inhibitor, single point].

**Q.** For `Cc1ccc(CN(C)CC(=O)Nc2ccc3c(c2)CCC3)cc1`, which “activity, negative = inhibition” value is on record?
**A.** Its value is inactive: -13.5%.

**Q.** For `COc1ccc(C(C#N)N2N=C(c3ccccc3)CC2c2ccccc2)cc1OC` (stereo unspecified), which Potency is on record?
**A.** Its Potency is inconclusive [inhibitor, single point].

**Q.** With `COc1ccccc1NC(=S)N(Cc1ccccc1)Cc1ccccn1` as the compound, how does the Potency read?
**A.** Its Potency is inconclusive [inhibitor, single point].

**Q.** Which Potency does the source give for `Cc1c(Cl)cccc1NC(=S)NC(=O)CCN1C(=O)c2ccccc2C1=O` here?
**A.** The Potency was inconclusive [inhibitor, single point].

**Q.** Which “activity, negative = inhibition” value does the source give for `Cc1cc(C)nc(N2CCCC(C(=O)Nc3ccc(F)cc3)C2)n1` (stereo unspecified) here?
**A.** The value was inactive: -6%.

**Q.** With `Cc1ccc(C)c(NC(=O)c2cc(-c3ccccc3)nn2-c2ccccc2)c1` as the compound, how does the Potency read?
**A.** Its Potency is active: 22.4 µM.

**Q.** With `CCOC(=O)C1C(=O)C=C(c2cccc(NS(C)(=O)=O)c2)CC1c1ccco1` (stereo unspecified) as the compound, how does the Potency read?
**A.** Its Potency is inconclusive [activator, single point].

**Q.** Which Potency does the source give for `O=C(CCc1nnc(-c2ccsc2)o1)N1CCc2c(Cl)cccc2C1` here?
**A.** The Potency was inconclusive [activator, single point].

**Q.** With `Cc1ccc(S(=O)(=O)Nc2cccc3cccnc23)c([N+](=O)[O-])c1` as the compound, how does the Potency read?
**A.** The Potency was active: 1.26 µM and active: 891 nM.

**Q.** Which Potency does the source give for `CC[C@@H]1Cn2c(c3nc(-c4cc(Cl)cc(Cl)c4Cl)nc-3n(C)c2=O)N1` here?
**A.** Its Potency is inconclusive [inhibitor, single point].

**Q.** For `COc1ccc(CN(C)Cc2c(O)ccc3cc(Br)ccc23)cc1OC`, which Potency is on record?
**A.** The Potency was inconclusive [inhibitor, single point].

**Q.** With `CCOCCCn1c(-c2ccc(Cl)cc2)n[nH]c1=S` as the compound, how does the Potency read?
**A.** The Potency was active: 10 µM.

**Q.** For `CCOc1ccc(NC(=S)Nc2ccc(F)cc2)cc1`, which Potency is on record?
**A.** Its Potency is inconclusive [inhibitor, single point].

**Q.** Which Potency does the source give for `COc1ccc(-c2noc(CSc3nc(N)cc(=O)[nH]3)n2)cc1` here?
**A.** Its Potency is inconclusive [inhibitor, single point].

**Q.** For `CC(C)n1nccc1N(Cc1ccc(Br)cc1)S(=O)(=O)c1ccccc1`, which “activity, negative = inhibition” value is on record?
**A.** Its value is inactive: 10.8%.

**Q.** For `CC(=O)OC1CC[C@]2(C)C(CC[C@@]3(C)C2C(=O)C=C2C4C(C)C(C)CC[C@@]4(C(=O)O)CCC23C)C1(C)C` (stereo partly specified), which “activity, negative = inhibition” value is on record?
**A.** Its value is inactive: -7.82%.

**Q.** With `CCc1ccc(NC(=O)c2[nH]c(C)c(C(C)=O)c2C)cc1` as the compound, how does the Potency read?
**A.** The Potency was inconclusive [inhibitor, full curve].

**Q.** For `CC(/C=C/c1ccccc1)=N\NC(=O)c1ccncc1`, which Potency is on record?
**A.** The Potency was active: 11.2 µM.

From PubChem BioAssay AID2546 (National Center for Advancing Translational Sciences (NCATS), 2010)
